# Experimental data: the supplement of paper PMC11417369
# ± gives the standard deviation of the averaged measurements. The list shows a part of the results.
# System: PfAP2-LT AP2 domain (GST-tagged)
# Assay: gcPBM binding intensity (ln(normalized median fluorescence intensity)); higher = stronger DNA binding
# Summary of the method: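 An Agilent 4 × 180k array of primer-extended double-stranded 36-bp intergenic genomic probes, with negative controls, was incubated for 1 h with GST-tagged P. falciparum DNA-binding domains expressed in E. coli. Alexa488 anti-GST antibody detected bound protein, scanned at 488 nm. Binding intensity is the highest Masliner-normalised natural-log median intensity across replicate spots of either probe orientation.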
row,Sequence,gcPBM binding intensity (ln)
1,TTTTTTCTCAAAAAAAAAACCTATGGTTATTAAGAT [XGTACX_negctrl_site534],8.06 ± 0.42
2,AAAATTTATAGTATGGTGCATAAAAATATATATATA,8.82 ± 0.46
3,AAAAAAAAAAAAAAATGTACATAAAAATGATATAAT [XGTACX_site4096],8.83 ± 0.47
4,TATAAGAAAAATAACACACACATAAACATAAATACA [CACACA_site5536],9.48 ± 0.21
5,TTATAATTCTATTATCTGTTCTTTTTATATTTTTTT [CACACA_negctrl_site855],8.68 ± 0.49
6,TTCTAAACACATTGACAAATTAATATATTACAGCAA [GTGCAC_negctrl_site121],8.48 ± 0.36
7,TTATTTTTCAATGAAAAGGATTATATATATATATAT [CACACA_negctrl_site757],8.95 ± 0.092
8,TGATGAAAATTTTTCTGTACAAAAAGTATGAAGGTA [XGTACX_site8901],8.65 ± 0.45
9,ACAATATATAAAATATGTACATAATATATATAATGA [XGTACX_site8731],8.86 ± 0.32
10,CCTAATTTTATTAGGGTGCATTTTTAGTTAAATATA,8.35 ± 0.32
11,ATCCACAAATTAACAAGTACATATATATATATATAT [XGTACX_site1267],9.64 ± 0.14
12,TAAGTTATATGTACTACACACGTACACAAAATAAGA [CACACA_site9237],9.08 ± 0.35
13,TTAAGAATCTATACTAGTACATATATGTATACAAGC [XGTACX_site8025],8.85 ± 0.47
14,ATTGTGTTAATAAAATGTACATTTTCTCTACTTTAA [XGTACX_site1199],8.84 ± 0.54
15,TGTAGAACAAAAAATTGTACATATTTGTAAAAAAAA [XGTACX_site3850],8.61 ± 0.53
16,TATATATATATGTGTAGTACAACAAATATGAAAAAT [XGTACX_site4059],9.11 ± 0.4
17,ATGAAAACCATGACGGGTACTCATTTATTATTTTAT [XGTACX_site6724],8.75 ± 0.44
18,AATTTAATATAATGCACACATAAAAAAAAATTCAAA [CACACA_site2062],8.89 ± 0.41
19,ATTTATTTGTTTATTTGTTTATTTGTTTATTTGTTT [CACACA_negctrl_site1386],9.06 ± 0.46
20,GAAATACATTTTAAAAAATAAGTAATTATAAAATAA [TGCATGCA_negctrl_site303],8.42 ± 0.47
21,GATACCTATAGACACACACACATACCTATATACATA [CACACA_site7586],9.66 ± 0.47
22,TTTATAAATAAACACACACACATGTGAACATAAAAA [CACACA_site5110],9.47 ± 0.35

row,Sequence,gcPBM binding intensity (ln)
1,ATTCATCCAATAATGTGAATTATCATGATAAACTTA [TGCATGCA_negctrl_site406],8.62 ± 0.33
2,ATCAAAATTGTCATTACACACCTTTATTTTTAGAAT [CACACA_site1813],8.77 ± 0.42
3,ATATATGTAAATGAATGTACATTATTTTATATATTA [XGTACX_site8460],8.82 ± 0.42
4,ATTATTCTATATGAAACATGCATACATTTGTATTTT [TGCATGCA_site823],8.93 ± 0.39
5,TACAACTTAATATGTACACACAAATATATATATATA [CACACA_site5138],9.36 ± 0.28
6,AAAATAATAAAAAACTGTACGAATTAAAAATTAACA [XGTACX_site8454],8.65 ± 0.42
7,TTGGATTTTTCCTATGAACACACGGGGTTACAATTA [CACACA_site449],8.87 ± 0.26
8,TCCAATAATTTATAAAAAAAAAAAGGGAAAATGTAT [TGCATGCA_negctrl_site492],8.41 ± 0.55
9,ATATATTTATTATTAACATGCAATCATTATATATAA [TGCATGCA_site404],8.44 ± 0.39
10,TTAATATGAGAATAATGTACAAGAAAATATTACATA [XGTACX_site6609],8.6 ± 0.5
11,CTTTCATTTCTATCTACACACATATTTTTTCCAAGT [CACACA_site2972],9.12 ± 0.5
12,GCGTGCGTGTACTTAACACACATAATATGTATTTAT [CACACA_site1247],9.33 ± 0.3
13,TTTTTTTTTCCCCCATGTACATAAATAAGTATATCT [XGTACX_site6965],8.76 ± 0.13
14,TTAATGTACAGACACCCACACACAAACAAATATATA [CACACA_site8888],9.57 ± 0.3
15,AAAAGAAAAAAAAGTACACACATGTATATTAAGCGT [CACACA_site5402],9.38 ± 0.42
16,TAACTTAATTTTAATGCACACAATTTATATATATAT [CACACA_site6022],8.89 ± 0.36
17,AAAAATATATATATATATATATATATATTATTTTTT [TGCATGCA_negctrl_site378],8.96 ± 0.19
18,TATATATATAAATACAGTACATATATAATATTTTGA [XGTACX_site637],8.64 ± 0.41
19,ATATGTACTATACGCACACACACTCACATATATATA [CACACA_site3239],9.77 ± 0.35
20,AATTATATGAAATAAACACACATATGCAATATTGCA [CACACA_site6988],8.87 ± 0.4
21,TTCAAGATTTATTATACACACATATTAAAATATATA [CACACA_site4479],8.6 ± 0.39
22,AAACATTTTCATTTGACACACATCATATATTTATAT [CACACA_site1794],9.11 ± 0.42
